Values marked as one replicate rest on one cluster of the flow cell; about a third of the high ones do not repeat.
Test system: ATP
Experiment: switch fluorescence ratio, 500 uM ATP over buffer (Cy3 cluster intensity, sum of 5 cycles each) (fold (ratio)); higher = stronger signal-on switching upon ATP binding; sequences stand for … in TCGTCGGCAGCGTCAGATGTGTATAAGAGACAGTTTTTTTTTTTTTTTTTTTTTTTTT…TC
Conditions: aptamer strand: ATP DNA aptamer (quencher-CACCTGGGGGAGTATTGCGGAGGAAGG + anchor), 100 nM annealed; ATP concentration: 500 uM; one replicate
Procedure, shortened: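 The quencher-labelled ATP aptamer, at 100 nM, was annealed to Cy3-labelled switching-strand clusters on a modified Illumina MiSeq flow-cell. The clusters were imaged in selection buffer, then after 15 min with 500 uM ATP at 22 °C, and this buffer/ATP cycle ran five times with NaOH stripping and re-annealing between runs. Per-cluster fluorescence ratios, summed target-cycle over summed buffer-cycle Cy3 intensity, were averaged per switch-domain sequence. Clusters outside 100-1000 RFU were excluded.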
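Also: ATP exposure 15 min at 22 °C before imaging.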

Sequence	switch fluorescence ratio
CCACTTTCAC	1.16
GCTGGTTTTT	0.949
ACGCCTTTCA	1.03
ACCCATGTC	1.09
GCCAACATTG	0.958
GTTTCACGTC	1.01
GATATGATGG	1
GGGATATGCG	1.01
TTAGCCTTTC	1.66
CCACTGGTAA	1.09
CGATCTTAAT	0.987
TAACATATGC	1.02
GTCTTGCGC	1.01
ACAAAGGATG	1.06
TCGCTGTATA	1
GTGAAACACC	0.996
TCGATGGGCT	0.994
CCTGTTGCCT	1.03
AAAGTATT	1.04
ATGTGACAAT	0.996
GGAGGCCGA	1.06
TTCGTGGGAG	0.988
CTGGCTTCC	2.22
AGTATCAAAT	1.01
GCAAGGCTGT	0.995
TTAAGGAAAC	1.04

Sequence	switch fluorescence ratio
AACAAGTGAT	1.01
TTATAAGGAC	1.05
TCACTCGGAG	1.02
GAGGACCTTG	0.957
GAAACTCA	1.01
TACCAGGTTG	1.45
GCCCCCAGCC	1.28
AAACTTTATC	1.01
GGGTTTTCT	0.996
CATGGTAAAG	1.02
TTAAGAGGAC	1.05
AGTGGTTCTC	0.988
CGGTGGCTCT	1
CAGAGCCTGT	1.04
TTCGAGCCTT	1.06
CGAGGCAGAG	1.74
GGTGGTTG	0.99
CTTTCTGGTA	0.998
TTGCTCCAGA	0.967
CAGAGAGAAC	1.01
ATTGGTTGAC	0.989
AAACGCCCTT	1.58
TCGATATGCG	0.923
TGTCGCGTAA	1.04
CCAAGTGCGT	1.02
AGAGTCCGGG	0.991

Sequence	switch fluorescence ratio
CCATGGGGAA	1.04
AACTAGGTGC	1.67
TTCATCCTAG	1.06
CCCATCTTGT	0.977
CTCATGTTT	0.962
GTTCCGGCAT	1.12
TCCTCTTGGT	1
GACAGCATTT	1.11
TTACGTTGAA	1.01
ATCAGTGTGC	1.11
CACCATAAAG	0.972
ATAAACGGTC	1.03
CCGGGTGGCG	1.01
TCGAGAATCA	0.982
CCAAACGCCG	1.03
CGCATAAAGG	1.08
TCGAAAAGGT	0.987
ATCGTCCT	1.04
GGCGTGTGTC	1.04
CGGGCCACCG	0.956
GAAGGCAGAA	1.03
GCGTGTGACC	1.05
ATGATGGAGC	0.922
CTAATGCCGG	1.07
CACGGGTCTG	1.04
CCTGATGTAA	1.01

Sequence	switch fluorescence ratio
TCATACTGAT	1.01
TTGCGTCAT	1.07
GAGCAAGGGG	1.01
TTCTTCTACT	1.07
TCGATTGCTT	1.01
TTGTTGCTCT	0.982
AGACGTCGCA	1.03
ACTAGTTGGG	0.998
TTGCTAGATC	1.06
GACAATTGGT	1.02
CACGAGATAG	1.11
GTCCAGCTCG	1.03
GTGATCGGCA	0.978
TTCTTATGGC	1.05
ACATACACCG	1.33
AGTAGAAAGA	0.976
GTCCGGGACA	0.95
TGCTTTATAA	1.03
TACACAAAGG	1.02
TCCAAATGAG	1.01
CGGGTCAAAC	1.09
AATTTAGGCT	0.966
AGGCCCCGA	0.981
CAGTGAACAG	1.01
AATCTGCAAA	1.79
AGCACATACG	2.16

Sequence	switch fluorescence ratio
TAAAGGGGC	1.09
ACACTTCGGA	1.02
ACGGCATTG	1.03
AGGTGAGCAG	1.02
GAGTAAAGAA	0.944
ACTTTGCACC	1.2
TCTTCATAGC	1.02
CTATCGCTTT	1.11
GGCGTCCGCT	1.02
ACTCCAGCGA	7.17
GTGGTGTGCT	0.985
CCCAGTGAA	1.13
AGGCTTTATC	0.97
CTGCGATCGC	0.995
ATTTACAACT	1.1
TAAGTCTTTT	1.01
GAAGAATTAG	0.96
ATCATACAGC	1.02
CAGCGGTTCA	1.04
ACGATGCGG	1.07
GTTAAAA	1.01
ACGAGAGGAA	1.02
GGAAAAATCA	1.03
ACCTTCCAGG	1.17
ACCAGCCAAC	1.15
CACGTTAACG	0.967

Sequence	switch fluorescence ratio
CTTTGCAGG	3.16
GCGAGATTAG	0.995
CAAATGGGCG	0.994
TCGTCGGATT	0.966
GATAATGTCG	1.02
CTTAACTATA	1.03
TGTTTACC	1.01
TAGAGTCAGT	1
CTCCATCGGT	1.05
AGCTGGATAT	0.953
TGTGGGAGTT	0.979
TTCATGAT	1.03
CCCCTTCAA	1
CAATAGACTC	1.05
CTTTCAGCCA	0.986
AGGTTGGAAG	0.983
TGAACCGGGG	0.976
CGTGAAAAT	0.993
GGTCATGCAG	0.988
AAGTGTTATC	0.984
TCGCATTTAT	1.17
CAGAGTACAA	1.04
TCGATCCGGA	1.11
AAAAAACCCC	1.1
CTCAGACAAT	1.75
GATAGATGGG	0.942

Sequence	switch fluorescence ratio
GTCACAAGTT	1.03
GACTCTTTAA	1.03
ACGTATGTTT	1.08
GTCAGGTGTC	1.71
GGTTGCCTTC	0.952
GGTAACGCGC	1.01
CATCAGACCC	1.03
TCAGAAGTCA	1.03
GATCCAGCAC	1.34
TTATTGCTAT	1.01
AGAGTTTATC	0.962
AACCTCTGAT	1.06
AACGATAAGG	1.04
ATTCAGAA	1.01
GACAGATAGG	0.962
GTTGGAAAAG	1.01
TTTAGGGG	0.978
TACACCAGCT	1.05
CGCATGCGTG	1.04
TAAGCTGCTT	0.93
CCCATGCGCA	1.05
CCGTGTCTTA	0.984
TTGACGGGTC	1.61
AAAGAGTAAG	0.967
GCCGACTAGG	1.03
CAGGCGCCAA	1.02

Sequence	switch fluorescence ratio
CTCGCACGCC	1.64
TATGTGCCGC	1.07
GAGGTGTGGC	1.09
AGAAAATCAT	1
TCAAATGAAG	1.03
GTAGTGAGAA	1.01
TTATGCGACG	0.958
CGGCTCTGC	0.989
GGCCCTAAGG	0.931
TTCGATCCGG	0.939
CCCCGGATTG	1.64
ACATGGGCAA	0.969
TGATTGATGG	0.957
CGTATTCTT	0.952
GACATCATCT	1.06
ATCGACTTGA	1.02
CTCGACAAGT	1.04
GAACTTTTTC	1.4
AGACTACATG	1.03
